According to PubChem BioAssay AID1030 (National Center for Advancing Translational Sciences (NCATS), 2008):
The whole screen tested about 220,000 compounds, of which about 16,000 (7.3%) were called active. The inconclusive results got no clear call from the source; some entries with a clear call stand among them for comparison. Calls follow the shape of the dose curve; as a rule, active = well fitted inhibition curve with a large enough effect (not every such curve was filed as active); inconclusive = small, poorly fitted or top-dose-only effect, or another doubt; inactive = no such curve, though single readings can be large or run the other way. Potencies of inconclusive entries are left out as doubtful fits.

Target: Aldehyde dehydrogenase 1A1 (Homo sapiens) (UniProt P00352)
Sequence of UniProt P00352 (P00352 whole entry, looked up): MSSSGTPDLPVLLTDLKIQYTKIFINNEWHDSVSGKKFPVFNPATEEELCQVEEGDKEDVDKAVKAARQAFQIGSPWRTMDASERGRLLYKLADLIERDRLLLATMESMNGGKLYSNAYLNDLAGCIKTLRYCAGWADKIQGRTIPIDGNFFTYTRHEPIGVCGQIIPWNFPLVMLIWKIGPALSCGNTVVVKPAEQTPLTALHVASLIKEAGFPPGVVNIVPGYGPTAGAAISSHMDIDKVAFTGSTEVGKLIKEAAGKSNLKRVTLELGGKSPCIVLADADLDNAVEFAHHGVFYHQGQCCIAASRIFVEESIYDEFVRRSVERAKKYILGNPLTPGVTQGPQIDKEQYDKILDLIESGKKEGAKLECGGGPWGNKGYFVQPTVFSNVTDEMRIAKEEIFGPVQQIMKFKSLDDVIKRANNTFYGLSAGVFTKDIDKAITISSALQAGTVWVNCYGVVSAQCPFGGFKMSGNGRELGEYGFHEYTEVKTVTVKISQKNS
Test: qHTS Assay for Inhibitors of Aldehyde Dehydrogenase 1 (ALDH1A1);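 as to activity, negative = inhibition: plate controls were no enzyme wells and a reference inhibitor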
Conditions: Purified ALDH1A1, NADH fluorescence, propionaldehyde substrate; series mostly up to 75.3 µM; activity, negative = inhibition: at the top concentration
Potency is read from the fitted curve at half-maximal effect; tags tell the direction and shape of the fitted curve.

**Q.** For `CCc1nnc(NC(=O)CSc2nnc(Cc3ccc(OC)cc3)o2)s1`, which Potency is on record?
**A.** inconclusive [inhibitor, single point]

**Q.** Which “activity, negative = inhibition” value does the source give for `N#C/C(=C/c1ccc2c(c1)OCO2)C(=O)NCCc1c[nH]c2ccccc12` here?
**A.** inactive: -13.7%

**Q.** With `COc1cccc(C(C2=C(O)CC(C)(C)CC2=O)C2C(=O)CC(C)(C)CC2=O)c1` (stereo unspecified) as the molecule, how does the “activity, negative = inhibition” value read?
**A.** inactive: 13.5%

**Q.** Which Potency does the source give for `COc1ccc(Cn2nnnc2C(c2cc3ccc(OC)cc3[nH]c2=O)N2CCC(C)CC2)cc1` (stereo unspecified) here?
**A.** active: 0.891 µM

**Q.** How did the Potency turn out when `c1ccc2nc(N3CCN(Cc4ccc5c(c4)OCO5)CC3)cnc2c1` was run?
**A.** inconclusive [inhibitor, single point]

**Q.** For `O=C1OCCN1C(=O)[C@H]1[C@H](c2ccccc2)C(c2ccc(F)cc2)=NN1c1ccc(Br)cc1`, which Potency is on record?
**A.** inconclusive [inhibitor, partial curve]

**Q.** `CCn1c2ccccc2c2cc(NC(=O)c3ccc(Br)o3)ccc21` was tested. Which Potency did it give?
**A.** active: 2.24 µM

**Q.** Which Potency does the source give for `COCCCNC(=S)N1CCN(c2ccc([N+](=O)[O-])cc2)CC1` here?
**A.** active: 28.2 µM

**Q.** How did the “activity, negative = inhibition” value turn out when `COc1ccccc1NC(=O)Cn1nc(C(F)(F)F)c2c1CCCC2` was run?
**A.** inactive: 1.97%

**Q.** Which Potency does the source give for `CC1CCc2sc(C(=O)Nc3nnc(SCc4ccc(F)cc4)s3)cc2C1` (stereo unspecified) here?
**A.** inconclusive [inhibitor, single point]

**Q.** For `Cc1ccc(NNC(=O)C(O)(c2cccc(C(F)(F)F)c2)c2cccc(C(F)(F)F)c2)cc1`, which Potency is on record?
**A.** inconclusive [inhibitor, partial curve]

**Q.** Which Potency does the source give for `O=C(O)C1C2CCC(O2)C1C(=O)NCCC1=CCCCC1` (stereo unspecified) here?
**A.** inconclusive [inhibitor, partial curve, poor fit]

**Q.** `CCOc1ccc(NS(=O)(=O)N(C)C)cc1` was tested. Which “activity, negative = inhibition” value did it give?
**A.** inactive: -0.489%

**Q.** `CCN(CC)CCCN(Cc1cc2cc3c(cc2[nH]c1=O)OCO3)C(=S)NCc1ccco1` was tested. Which Potency did it give?
**A.** inconclusive [inhibitor, single point]

**Q.** `COc1ccc(C(=O)C2CCCN(C3Cc4ccccc4C3)C2)cc1OC` (stereo unspecified) was tested. Which Potency did it give?
**A.** inconclusive [inhibitor, single point]

**Q.** With `CCOC(=O)C1=C(C)N2C(=C(C#N)[C@@H]1c1ccc(C(=O)OC)cc1)SC[C@@]2(O)C(C)(C)C` as the molecule, how does the Potency read?
**A.** inconclusive [inhibitor, single point]

**Q.** For `S=C(NC1CCCCC1)NN1CCOCC1`, which “activity, negative = inhibition” value is on record?
**A.** inactive: 1.83%

**Q.** For `c1csc(CNc2ncncc2-c2ccc3c(c2)OCO3)c1`, which Potency is on record?
**A.** inconclusive [inhibitor, single point]

**Q.** For `Cc1noc2nc(-c3cccs3)cc(-c3nnc4n3CCCCC4)c12`, which Potency is on record?
**A.** inconclusive [inhibitor, partial curve]

**Q.** With `CCc1ccc(NC(=O)COC(=O)C2(c3ccc(Cl)cc3)CCCC2)cc1` as the molecule, how does the Potency read?
**A.** inconclusive [inhibitor, single point]

**Q.** For `CCOC(=O)N1CCC(N2C(=O)c3cc(C(=O)NC4CCCCC4)ccc3C2O)CC1` (stereo unspecified), which Potency is on record?
**A.** inconclusive [inhibitor, partial curve]

**Q.** How did the “activity, negative = inhibition” value turn out when `COc1cc(CNC(=O)c2cccc(COc3ccc(Cl)cc3)c2)cc(OC)c1` was run?
**A.** inactive: 5.4%

**Q.** `CCC(Sc1ncccc1C(=O)OC(C)C)C(=O)NCc1ccco1` (stereo unspecified) was tested. Which “activity, negative = inhibition” value did it give?
**A.** inactive: -3.78%

**Q.** Which Potency does the source give for `COCCn1c(=O)c(-c2ccccc2)nc2cnc(Oc3ccc(OC)cc3)nc21` here?
**A.** inconclusive [inhibitor, partial curve]

**Q.** `CCOC(=O)N1CCN(C(=O)C2CCCCC2)CC1` was tested. Which Potency did it give?
**A.** inconclusive [inhibitor, single point]

**Q.** Which “activity, negative = inhibition” value does the source give for `CCN(CC(=O)NC)S(=O)(=O)c1ccc(Br)cc1` here?
**A.** inactive: 7.98%

**Q.** `O=C1S/C(=C/c2ccc(N3CCOCC3)o2)C(=O)N1Cc1ccc(F)cc1` was tested. Which Potency did it give?
**A.** active: 2.24 µM

**Q.** For `COC(=O)c1ccc(CN2[C@H](C(=O)OC)C[C@@]3(O)[C@@H](O)[C@@H](O)[C@@H](O)C[C@@H]23)cc1`, which “activity, negative = inhibition” value is on record?
**A.** inactive: 0.687%

**Q.** Which “activity, negative = inhibition” value does the source give for `CCC(C)C(=O)OC1CC(O)C=C2C=CC(C)C(CCC(O)CC(O)CC(=O)O)C21` (stereo unspecified) here?
**A.** inactive: -0.865%

**Q.** With `COCCN(CCOC)C(=S)Nc1cc(S(=O)(=O)N(C)C)ccc1C` as the molecule, how does the Potency read?
**A.** inconclusive [inhibitor, single point]

**Q.** `CC(C)[C@H](NS(=O)(=O)c1ccc2c(c1)OCCO2)C(=O)OCC(=O)Nc1cc(Cl)ccc1Cl` was tested. Which Potency did it give?
**A.** inconclusive [inhibitor, single point]

**Q.** How did the Potency turn out when `C#CCNc1nc(C(C)C)nc2c1nnn2Cc1ccccc1F` was run?
**A.** active: 11.2 µM

**Q.** `CCOC(=O)C1(CCOc2ccccc2)CCN(Cc2ccc3nonc3c2)CC1` was tested. Which Potency did it give?
**A.** active: 28.2 µM

**Q.** With `O=S(=O)(Cc1cc(N2CCOCC2)nc(-c2ccccn2)n1)c1ccccc1` as the molecule, how does the Potency read?
**A.** inconclusive [inhibitor, single point]

**Q.** `Cc1cc2cc(CNC(=S)NCc3ccccc3)ccc2n1C` was tested. Which Potency did it give?
**A.** inconclusive [inhibitor, single point]

**Q.** For `Cc1cc(C(=O)N[C@@H](c2ccccc2)[C@]2(C)C[C@H]2[C@@H](C)C(=O)Nc2ccc3ccccc3c2)no1`, which Potency is on record?
**A.** inactive

**Q.** For `Cc1cc(Cl)ccc1OCCCC(=O)NCCN1C(=O)S/C(=C\c2cccnc2)C1=O`, which “activity, negative = inhibition” value is on record?
**A.** inactive: 6.85%

**Q.** How did the Potency turn out when `COc1ccc(-n2nnc3c(SCC(=O)Nc4ccc5c(c4)OCCO5)ncnc32)cc1` was run?
**A.** inconclusive [inhibitor, single point]

**Q.** `COc1ccc([C@H]2[C@H](C(=O)OC(C)(C)C)N3N=Cc4ccccc4C3C23C(=O)c2ccccc2C3=O)cc1OC` (stereo partly specified) was tested. Which “activity, negative = inhibition” value did it give?
**A.** inactive: -13.2%

**Q.** Which Potency does the source give for `Cc1c(Cl)cccc1NS(=O)(=O)c1ccc2c(c1)C1C=CCC1C(c1ccc(C(=O)O)cc1)N2` (stereo unspecified) here?
**A.** active: 12.6 µM

**Q.** `O=C(Nn1cnc2ccccc2c1=O)c1ccc([N+](=O)[O-])cc1Cl` was tested. Which “activity, negative = inhibition” value did it give?
**A.** inactive: 2.25%

**Q.** For `CC1Oc2ccccc2C=C1/C=N/NC(=O)c1ccccc1` (stereo unspecified), which Potency is on record?
**A.** inconclusive [inhibitor, single point]

**Q.** For `CC(C)[C@H](NC(=O)c1ccccc1Cl)C(=O)OCc1cc([N+](=O)[O-])cc2c1OCOC2`, which Potency is on record?
**A.** inconclusive [inhibitor, single point]

**Q.** How did the Potency turn out when `CCC(=O)Nc1cc(-c2nn(C)c(=O)c3ccccc23)ccc1N1CCOCC1` was run?
**A.** inconclusive [inhibitor, partial curve]

**Q.** For `Nc1c(N2CCCC2)cc(Cl)c2nonc12`, which Potency is on record?
**A.** inconclusive [inhibitor, partial curve, poor fit]

**Q.** With `Nc1nc2ccc([N+](=O)[O-])cc2s1` as the molecule, how does the Potency read?
**A.** inconclusive [inhibitor, single point]

**Q.** `Cc1ccc(S(=O)(=O)NC2CCCCC2)c(C)c1NS(C)(=O)=O` was tested. Which “activity, negative = inhibition” value did it give?
**A.** inactive: -0.667%

**Q.** For `CCOC(=O)Nc1ccc(NS(=O)(=O)c2ccc(C)cc2)cc1`, which Potency is on record?
**A.** inconclusive [inhibitor, single point]

**Q.** For `CCOc1ccc(S(=O)(=O)N2CCCC2)cc1`, which “activity, negative = inhibition” value is on record?
**A.** inactive: 1.32%

**Q.** With `COC(=O)CCc1nc2ccccc2[nH]c1=O` as the molecule, how does the Potency read?
**A.** inconclusive [inhibitor, single point]

**Q.** For `O=C(COC(=O)CC12CC3CC(CC(C3)C1)C2)Nc1cccnc1Cl`, which “activity, negative = inhibition” value is on record?
**A.** inactive: -13.9%

**Q.** For `Cc1ccc(S(=O)(=O)N(CC(=O)NCC2CCCO2)c2cccc([N+](=O)[O-])c2)cc1` (stereo unspecified), which Potency is on record?
**A.** active: 14.1 µM

**Q.** With `O=C(O)c1ccccc1NSc1ccccc1[N+](=O)[O-]` as the molecule, how does the Potency read?
**A.** inconclusive [inhibitor, single point]

**Q.** For `CCN(CC)C(=O)CSc1nc(N)c(C(=O)Nc2ccc(OC)cc2)s1`, which Potency is on record?
**A.** inconclusive [inhibitor, partial curve]

**Q.** `CCOC(=O)c1sc(NC(=O)Cc2c(F)cccc2Cl)nc1C` was tested. Which Potency did it give?
**A.** inconclusive [inhibitor, single point]

**Q.** `Cn1nnc(C(O)CN2CCOCC2)n1` (stereo unspecified) was tested. Which Potency did it give?
**A.** inconclusive [inhibitor, single point]

**Q.** Which Potency does the source give for `COc1ccc([N+](=O)[O-])cc1NS(=O)(=O)c1ccc(Cl)c(C(=O)Nc2sc3c(c2C#N)CCCCC3)c1` here?
**A.** inconclusive [inhibitor, single point]

**Q.** `CC1CCc2sc(NC(=O)C3CC(Cl)=CCC3C(=O)O)c(C#N)c2C1` (stereo unspecified) was tested. Which “activity, negative = inhibition” value did it give?
**A.** inactive: -12%

**Q.** Which Potency does the source give for `COc1ccc(CCNS(=O)(=O)c2ccc(S(=O)(=O)N3CCCC3)cc2)cc1OC` here?
**A.** inconclusive [inhibitor, partial curve]

**Q.** How did the Potency turn out when `COc1ccc(/C=N/N2C(=O)c3ccccc3C2=O)cc1` was run?
**A.** inconclusive [inhibitor, single point]

**Q.** With `O=C(COc1ccccc1)N1CCN(C(=O)c2ccco2)CC1` as the molecule, how does the Potency read?
**A.** inconclusive [inhibitor, single point]

**Q.** For `COC(=O)N[C@@H](c1cccc(F)c1)[C@@H](C)[N+](=O)[O-]`, which “activity, negative = inhibition” value is on record?
**A.** inactive: 10.3%

**Q.** How did the Potency turn out when `CC1(C)Cc2c(sc3nc(SCC(=O)N4CCOCC4)nc(N)c23)CO1` was run?
**A.** inconclusive [inhibitor, single point]

**Q.** Which Potency does the source give for `COC(=O)C1=NN(c2ccc(Cl)cc2)C2C(=O)N(c3ccccc3OC)C(=O)C12` (stereo unspecified) here?
**A.** inconclusive [inhibitor, partial curve]

**Q.** `CC(=O)c1cc(F)c(N2CCN(c3ccc([N+](=O)[O-])cc3F)CC2)cc1C` was tested. Which “activity, negative = inhibition” value did it give?
**A.** inactive: -17.2%

**Q.** How did the “activity, negative = inhibition” value turn out when `CCc1cccc(NC(=O)Nc2cccs2)c1` was run?
**A.** inactive: -1.97%

**Q.** `Cc1noc(/C=C/N(C)C)c1S(=O)(=O)N1CCc2ccccc21` was tested. Which Potency did it give?
**A.** active: 5.62 µM

**Q.** For `Nc1ccc(C(=O)N(CCO)CCO)cc1`, which “activity, negative = inhibition” value is on record?
**A.** inactive: -1.21%

**Q.** Which Potency does the source give for `Nc1nonc1-n1nnc(C(=O)N/N=C/c2ccc(Br)cc2)c1CSC1=NCCS1` here?
**A.** inconclusive [inhibitor, single point]

**Q.** With `CCOC(=O)CC(NS(=O)(=O)c1ccc(OC)c(C)c1)c1cccc([N+](=O)[O-])c1` (stereo unspecified) as the molecule, how does the Potency read?
**A.** inconclusive [inhibitor, partial curve, poor fit]

**Q.** `CC1SCCN1S(=O)(=O)c1ccc2ccccc2c1` (stereo unspecified) was tested. Which Potency did it give?
**A.** inconclusive [inhibitor, single point]
